± gives the standard deviation of the averaged measurements. Whole data set: some 33,000 sequences, median “E-score (dimensionless, -0.5 to 0.5)” near -0.046, cut for the highest 2% near 0.36. Some of the results follow.
Tested on: T1, SpTbr T-box DNA-binding domain (GST fusion)
T1 sequence: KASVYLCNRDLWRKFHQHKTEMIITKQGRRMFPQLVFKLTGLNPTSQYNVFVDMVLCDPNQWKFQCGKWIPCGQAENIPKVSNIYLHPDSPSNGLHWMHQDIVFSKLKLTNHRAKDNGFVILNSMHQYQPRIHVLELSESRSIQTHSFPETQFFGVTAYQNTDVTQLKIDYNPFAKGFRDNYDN
Assay: PBM E-score of 8-mer (E-score (dimensionless, -0.5 to 0.5)); Tbr is Tbrain of the sea star Patiria miniata (Pm) or the sea urchin Strongylocentrotus purpuratus (Sp); higher = stronger binding preference; most listed sequences are background and not binding sites
Conditions: the construct has about 5 more residues each side
Procedure: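 Universal protein-binding microarray (Agilent AMADID 016060, 60-bp probes with a 35-bp variable region) incubated with 200 nM GST-fused Strongylocentrotus purpuratus Tbr T-box DNA-binding domain (residues 362-554) in PBS pH 7.5. Scored for every ungapped 8-mer (given with its reverse complement) as E-score (range -0.5 to 0.5; >0.45 counts as bound) and Z-score of median probe intensity. Two replicate arrays (datasets 1 and 2).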
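Note: protein at 200 nM in PBS on universal double-stranded arrays.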

Sequence	PBM E-score of 8-mer
ACGTTCTA	-0.115 ± 0.021
AAGGCAAA	-0.182 ± 0.027
AGATTTCC	-0.118 ± 0.024
CTGGTCTA	-0.111 ± 0.014
GCCGACTA	-0.0661 ± 0.027
AGTAGAAT	-0.219 ± 0.017
CTCCGCAA	-0.185 ± 0.095
AGAAGATA	-0.171 ± 0.078
CGTTTATA	-0.295 ± 0.032
CCATTAAA	-0.212 ± 0.065
CACTGGCC	-0.159 ± 0.077
CCTCGAGG	0.00849 ± 0.019
CTTCCGGC	-0.0641 ± 0.0021
CGATACTA	-0.0248 ± 0.015
AGCTTCGG	-0.218 ± 0.022
ATGATTGC	-0.169 ± 0.038
CACTATCG	0.164 ± 0.015
TGATGGCA	0.067 ± 0.053
CATCTGAG	-0.142 ± 0.031
AGGGGTGC	0.222 ± 0.042
GATAAGCA	-0.0139 ± 0.028
ACGCAGCA	-0.0519 ± 0.11
AGGCACAC	0.227 ± 0.022
ACGTGACC	0.135 ± 0.082
GTGAGAGA	0.339 ± 0.0054

Sequence	PBM E-score of 8-mer
GAATCGGC	-0.089 ± 0.0017
CAAAGACC	-0.203 ± 0.007
CACCCATA	0.113 ± 0.015
GATGGACA	-0.153 ± 0.011
CCAGGTTA	-0.17 ± 0.14
GTTCAAAA	-0.166 ± 0.031
ACCCTGAG	0.0258 ± 0.022
GACGCACA	0.0977 ± 0.036
ATAACTAG	-0.0803 ± 0.047
CTATGATC	-0.192 ± 0.0053
ACACCTCA	0.4607 ± 0.0039
ACCGGCTC	-0.0962 ± 0.049
ACTCTCGG	-0.123 ± 0.051
TCCGAAAA	-0.0102 ± 0.087
CGGAAGAG	0.0304 ± 0.035
GGATATGA	-0.15 ± 0.011
ACAAACTC	0.149 ± 0.049
AAAAATAC	-0.0542 ± 0.049
ACCTACGG	-0.131 ± 0.025
CTCTCGAA	-0.00998 ± 0.018
GTGAACTA	0.255 ± 0.011
AAGTCGGA	-0.304 ± 0.031
AATCAGAT	-0.0488 ± 0.017
TGCCGCCA	0.207 ± 0.036
GAAGGAAC	-0.167 ± 0.056

Sequence	PBM E-score of 8-mer
CGTATACG	-0.0206 ± 0.13
AACTAGAC	-0.215 ± 0.091
AGCTCGAG	-0.16 ± 0.09
GAATTTCC	-0.0405 ± 0.041
ATCAGGCC	-0.367 ± 0.035
GAGCGCAC	-0.05899 ± 0.00038
GTCATATA	-0.0155 ± 0.092
CAGAGGCG	0.135 ± 0.058
AAGTGAAT	0.0133 ± 0.0032
CAGTCTTC	-0.157 ± 0.048
TAGTTACA	-0.0656 ± 0.014
CACCCGGC	0.101 ± 0.022
GTCCGGAC	-0.165 ± 0.059
CTCGCCAG	0.00081 ± 0.048
GTTCCAAC	-0.1 ± 0.087
ACTCGCTG	0.138 ± 0.064
ACCTCAGG	0.0227 ± 0.008
ACCAATCG	0.0341 ± 0.021
AGAATGAC	0.0493 ± 0.042
CACTCGAA	0.205 ± 0.011
CTCTACCA	-0.11 ± 0.036
AGTAGTGA	0.109 ± 0.059
AGAGGGAT	-0.144 ± 0.12
AGGGAGGG	-0.224 ± 0.039
GGCTATCA	-0.0415 ± 0.069

Sequence	PBM E-score of 8-mer
GCGGACAA	-0.133 ± 0.06
AAGAGTTG	-0.00626 ± 0.028
AGTATGCA	-0.0433 ± 0.0085
AGTAGCGA	0.188 ± 0.0035
AGTCCGGA	-0.0864 ± 0.026
CCAATAAA	-0.104 ± 0.012
GACCTGTA	-0.133 ± 0.054
CTGGTTGA	-0.0222 ± 0.079
GGAAGCTA	-0.168 ± 0.018
CGGTATGC	-0.18 ± 0.0084
ACGGCATG	-0.0835 ± 0.0075
AGACACAG	-0.0147 ± 0.027
CACCACGA	-0.0413 ± 0.025
CAGTATGA	-0.16614 ± 7.8e-05
AAAATAAT	-0.135 ± 0.11
AAAAGAAC	-0.147 ± 0.019
CTCGATAA	0.1127 ± 0.00061
CCCCGTCG	-0.0445 ± 0.094
AGACACAT	0.229 ± 0.0028
GTAGCTGA	-0.00722 ± 0.057
GCACAGAC	0.00368 ± 0.011
CGAAGGTA	0.00844 ± 0.058
ACATTTGG	0.084 ± 0.14
ATAAAGGA	-0.309 ± 0.075
ACCGTTCA	0.027 ± 0.023

Sequence	PBM E-score of 8-mer
ACGCAGAC	-0.105 ± 0.081
ATGGGTGG	-0.13 ± 0.042
ATGTGACG	0.285 ± 0.026
GTGCAAGA	0.0107 ± 0.013
ACTCACAT	0.124 ± 0.049
ATTATTCC	-0.246 ± 0.01
GCCCGCCC	-0.154 ± 0.007
GTTAACCA	0.036 ± 0.064
CACAGTAA	0.0163 ± 0.1
GAAAGTGC	0.135 ± 0.03
CTTTAAGA	-0.26 ± 0.011
GAGCGACA	0.198 ± 0.054
GCTGAGCA	0.0169 ± 0.0038
AGCTGTTG	0.208 ± 0.0081
TCGAGTAA	-0.0353 ± 0.036
ATGAGAAG	-0.29 ± 0.056
AGGCGCCT	-0.124 ± 0.004
ACGCGAGC	0.212 ± 0.023
GAGGTCCA	-0.242 ± 0.0045
CAAACTGG	0.0711 ± 0.03
ACGGGGAT	0.0216 ± 0.018
AACGAATA	-0.142 ± 0.048
CACCCTCG	0.36 ± 0.0041
GCAGTAGC	-0.136 ± 0.042
TTGGAAAA	-0.105 ± 0.065

Sequence	PBM E-score of 8-mer
AGGCAATA	-0.235 ± 0.044
CTTGGGTC	-0.21 ± 0.01
AAGTCTGA	-0.165 ± 0.083
CGAGGCCG	-0.111 ± 0.09
CTAGGGAC	-0.0934 ± 0.027
CAGCCATA	0.00517 ± 0.021
GTGTCTCA	0.178 ± 0.058
CACAGAAC	-0.0292 ± 0.046
AGGAGAAG	-0.33 ± 0.021
CTTGTCAA	0.355 ± 0.0065
AATAATAT	-0.0261 ± 0.018
AGCCATTC	-0.0528 ± 0.028
AGTACGAC	-0.0149 ± 0.051
CCACATGG	0.0382 ± 0.036
CACGTGTA	0.272 ± 0.0034
GACATCTA	0.0108 ± 0.011
ATCCCCAT	-0.144 ± 0.041
ATGTATGC	-0.249 ± 0.025
CCGTACGC	-0.0684 ± 0.011
CAAGGGAG	0.00799 ± 0.084
AAGCCGGT	-0.0642 ± 0.049
GCGGGAGC	0.0723 ± 0.018
TATTGTGA	0.277 ± 0.057
AGCTTCGC	0.274 ± 0.022
CGTCCTAG	-0.234 ± 0.04

Sequence	PBM E-score of 8-mer
AAAGACTA	0.0263 ± 0.048
ATCTAATA	-0.166 ± 0.09
CCCCATCA	0.0111 ± 0.0018
CAGCTATC	-0.0505 ± 0.015
ACTAGACA	-0.042 ± 0.016
CGTAGATC	-0.215 ± 0.032
AGAGGATA	-0.0705 ± 0.087
AGTGGTAC	-0.16 ± 0.01
ATGATCCG	0.00428 ± 0.051
CCTGCCAG	0.126 ± 0.064
ACGTTCCG	-0.143 ± 0.033
GTTCCGGA	-0.374 ± 0.01
ATGCAGCG	-0.0788 ± 0.099
AAAACGAC	-0.0361 ± 0.045
AGAATAGG	-0.132 ± 0.061
CCCCCCGC	-0.0963 ± 0.12
GGCAGGCC	-0.231 ± 0.078
GCTGTGCA	0.0558 ± 0.051
CAAAGGTG	0.3923 ± 0.00076
GGCCAGCA	0.0296 ± 0.0025
AATCCTAT	-0.143 ± 0.0062
CCAGGTTC	-0.0508 ± 0.007

Reference: the supplement of paper PMC4166925
